# Results reported in the supplement of paper PMC3334620.
# In all, about 33,000 sequences were measured (“E-score (-0.5 to 0.5)”: median about -0.012, highest 2% from about 0.29 on). Some of the results follow.
# Biological target: T1, Ybr033w (UniProt P38073)
# T1 sequence: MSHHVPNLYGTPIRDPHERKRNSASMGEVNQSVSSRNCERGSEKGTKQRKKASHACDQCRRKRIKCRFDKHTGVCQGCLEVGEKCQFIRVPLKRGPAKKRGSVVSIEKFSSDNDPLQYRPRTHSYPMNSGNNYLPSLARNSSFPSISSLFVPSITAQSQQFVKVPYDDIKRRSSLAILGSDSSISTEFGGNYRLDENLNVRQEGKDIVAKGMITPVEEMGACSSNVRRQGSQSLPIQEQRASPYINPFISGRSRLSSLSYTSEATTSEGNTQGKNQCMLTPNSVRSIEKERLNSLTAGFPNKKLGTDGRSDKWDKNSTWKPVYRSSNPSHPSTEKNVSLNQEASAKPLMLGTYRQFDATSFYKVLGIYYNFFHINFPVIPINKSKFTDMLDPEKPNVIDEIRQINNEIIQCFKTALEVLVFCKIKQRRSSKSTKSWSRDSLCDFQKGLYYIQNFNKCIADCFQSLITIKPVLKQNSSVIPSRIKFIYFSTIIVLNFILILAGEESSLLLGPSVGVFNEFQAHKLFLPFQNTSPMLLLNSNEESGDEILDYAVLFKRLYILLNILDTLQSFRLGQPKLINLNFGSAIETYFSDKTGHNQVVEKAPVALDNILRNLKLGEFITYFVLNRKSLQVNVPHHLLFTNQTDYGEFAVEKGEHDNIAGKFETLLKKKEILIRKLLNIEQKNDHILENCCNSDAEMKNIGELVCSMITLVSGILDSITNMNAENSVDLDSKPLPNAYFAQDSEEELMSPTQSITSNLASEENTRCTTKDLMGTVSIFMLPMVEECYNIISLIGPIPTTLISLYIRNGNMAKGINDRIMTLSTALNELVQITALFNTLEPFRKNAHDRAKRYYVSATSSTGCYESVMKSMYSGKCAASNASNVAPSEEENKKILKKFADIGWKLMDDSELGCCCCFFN
# Assay: PBM E-score (8-mer binding enrichment) (E-score (-0.5 to 0.5)); higher = stronger / more preferred TF binding; most listed sequences are background and not binding sites
# Conditions: protein concentration: 200 nM; construct: GST-full length
# Summary of the method: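 The E-score, a modified Wilcoxon-Mann-Whitney statistic, was computed by the Universal PBM Analysis Suite for every ungapped eight-base word pooled with its reverse complement. Scans behind it were normalised with masliner after bound GST-tagged yeast transcription factors were detected with fluorescent anti-GST. The proteins, at about 100-200 nM, had been applied to universal all-10-mer Agilent arrays made double-stranded by primer extension.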
row,Sequence,PBM E-score
1,ATGACGAG,-0.187
2,AGCATTAG,0.126
3,ATCGTTGA,0.176
4,CACCTTAG,-0.0996
5,ATCGTCAA,0.0944
6,ACCCACGT,0.0118
7,CTCTCTGC,-0.105
8,AAACGGTA,0.109
9,GTATCGGA,0.0102
10,ACACGAAT,0.177
11,CAGCTCGG,-0.214
12,AACCTAAT,0.156
13,AAGCCAGA,-0.0756
14,CTGCCTGA,0.0559
15,AATATGAA,0.242
16,ATTCCGCG,0.0377
17,ACTACCGA,-0.154
18,ATCACAAT,0.147
19,CACGGAAA,0.0601
20,GAGTCCGC,-0.393
21,TAGATGGA,0.148
22,GTAGAATA,0.164

row,Sequence,PBM E-score
1,GGACGCAC,-0.094
2,CTAGCAAC,0.0221
3,ACGTGACG,-0.0117
4,TCCACGCA,-0.0247
5,ACGGACAT,0.00601
6,AGCAGACA,-0.168
7,CACAAAGG,0.084
8,CCACAGCC,-0.229
9,CCCAGTCC,-0.0616
10,CCCACTGA,-0.134
11,CTCCAGAG,-0.185
12,GTGACATA,0.087
13,AGGACTGG,-0.00354
14,CCTCCTAG,-0.00706
15,GGGTGTAA,-0.0396
16,AATTCAAA,0.207
17,ACCAAGGG,-0.0531
18,ATAGTCAA,0.104
19,AGGGTGCC,-0.355
20,GGTCGCGA,0.113
21,ATCCTAAA,0.0666
22,GGACATGA,-0.0967

row,Sequence,PBM E-score
1,GCAAGTCA,-0.0929
2,ACTGACAA,0.12
3,ACAACTAA,0.195
4,ACCTAATA,0.272
5,TCGGGGCA,-0.2
6,TCATCGGA,0.109
7,CCAGAAGG,0.0099
8,GTGCTTAA,0.0607
9,ATCGTCAC,0.0175
10,TAGGATAA,0.191
11,CGCTAACC,-0.154
12,GACCTCCC,-0.249
13,ACATTTTC,0.0229
14,AAATAAGG,0.00755
15,AGCTCCAC,-0.183
16,ACACGATG,-0.0592
17,AGGAAGAC,-0.214
18,GCATTAAC,0.0724
19,ACGCCTCA,-0.0842
20,ATCGGCGC,-0.0516
21,GGTATAAC,0.0214
22,GCGCCCGA,-0.175

row,Sequence,PBM E-score
1,GTTACTTA,0.18
2,AGTTTTAG,0.0593
3,AAGACGCA,-0.0977
4,CACCAGAG,-0.189
5,TAGCGACA,0.0341
6,CGACATAA,0.125
7,GAAGTTGC,-0.233
8,AGCTATAC,-0.0639
9,ACCGATGG,-0.136
10,CTCGCAGC,-0.182
11,GTAGGCCA,-0.119
12,CAGTGGCG,-0.227
13,AGATGCTC,-0.0578
14,ACGTGTTG,-0.117
15,CGTCCCAG,-0.21
16,AGACCTCA,-0.101
17,AACCTGAC,0.103
18,AGGACTCA,0.0434
19,CGCATGCC,0.132
20,CACGATCA,0.0996
